According to the supplement of paper PMC12217912:
The other results are listed elsewhere or left out. The full chains were built here from the parent and the listed change. Values near 0.05 are background.

B1: TEV protease; numbered along this chain (parent)
chain: MGESLFKGPRDYNPISSSICHLTNESDGHTTSLYGIGFGPFIITNKHLFRRNNGTLVVQSLHGVFKVKDTTTLQQHLVDGRDMIIIRMPKDFPPFPQKLKFREPQREERICLVTTNFQTKSMSSMVSDTSCTFPSGDGIFWKHWIQTKDGQCGSPLVSTRDGFIVGIHSASNFTNTNNYFTSVPKNFMELLTNQEAQQWVSGWRLNADSVLWGGHKVFMVKPEEPFQPVKEATQL

Variants of: B1
Assay: raw area under fraction-flipped curve 0-4 h after induction (AUC4h, not background-subtracted), DNA-recorder readout of cleavage of the substrate (dimensionless); higher = more cleavage of the substrate by the protease variant
Conditions: temperature: 34 °C; time window: 0-4 h after rhamnose induction
Description: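 In vivo DNA recorder in E. coli TOP10(DE3) ΔrhaA at 34 °C. Each TEVp single-site mutant (parent TEVp 0) is paired with a single-site variant of the 7-mer TEVs (canonical ENLYFQ|S). The substrate sits between flexible linkers in a Bxb1-sfGFP-TEVs-SsrA fusion, so cleavage stabilises Bxb1 and speeds flipping of a recombination array, read by NGS. The value is the raw area under the fraction-flipped curve over 0-4 h after rhamnose induction (AUC4h), with ≥20 reads per time point. It is not background-subtracted; inactive controls average about 0.047.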
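Further: Bxb1 expression induced with 0.2% (w/v) L-rhamnose at OD600 near 0.5, cultures sampled hourly, flipped fraction per protease–substrate barcode pair counted by paired-end Illumina sequencing.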

Variant | area with substrate ENAYFQS | area with substrate ENDYFQS | area with substrate ENGYFQS | area with substrate ENMYFQS | area with substrate ENSYFQS | area with substrate ENCYFQS | area with substrate ENHYFQS | area with substrate ENKYFQS | area with substrate ENPYFQS | area with substrate ENQYFQS
F140S | 0.0457 | 0.0699 | 0.0388 | 0.058 | 0.0832 | – | – | – | – | –
T119A | 0.0872 | 0.0647 | 0.0551 | 0.0804 | 0.0572 | 0.068 | 0.0474 | 0.0586 | 0.057 | 0.0621
T119S | 0.0645 | 0.0645 | – | – | 0.0643 | – | – | – | 0.056 | –
T119G | 0.0676 | – | – | 0.115 | – | 0.0783 | – | 0.0542 | – | –
T119Q | 0.0493 | 0.0701 | 0.0495 | – | – | – | – | 0.0646 | – | –
T114N | 0.0562 | 0.0717 | – | 0.105 | 0.0569 | – | 0.0651 | – | 0.0153 | 0.0577
G153T | 0.0547 | 0.0335 | – | – | 0.0449 | – | – | – | 0.0568 | 0.0438
G153C | 0.0449 | 0.0281 | 0.0575 | 0.0326 | 0.0409 | – | – | – | 0.061 | 0.056
G153F | 0.0456 | 0.0531 | – | – | – | 0.0463 | – | – | 0.0417 | –
G153L | 0.0395 | – | 0.0547 | 0.0835 | 0.0499 | 0.0628 | 0.0506 | – | – | 0.0441
T129D | 0.0614 | 0.076 | 0.0637 | 0.0815 | 0.0528 | – | 0.0694 | 0.0664 | – | 0.0586
T129K | 0.0687 | – | 0.0653 | – | 0.064 | 0.0618 | – | 0.0543 | 0.0466 | 0.0608
S121F | 0.0597 | 0.0411 | 0.0517 | – | 0.0598 | – | 0.0613 | – | 0.0582 | 0.0453
S124Y | 0.0738 | – | – | – | 0.0454 | 0.0665 | – | 0.0731 | – | 0.0755
S124C | 0.065 | – | 0.0794 | – | 0.064 | 0.0712 | – | 0.0521 | 0.071 | 0.0593
S124G | 0.0642 | 0.0691 | 0.0594 | – | 0.0521 | – | 0.0992 | – | 0.0518 | 0.0653
V113W | 0.067 | – | – | 0.0885 | 0.0637 | 0.0662 | 0.0759 | 0.0734 | 0.0494 | –
G138L | 0.0382 | 0.076 | – | – | – | – | – | – | – | –
G138M | 0.0896 | 0.0531 | – | – | – | – | – | – | 0.0714 | –

Variant | area with substrate ENAYFQS | area with substrate ENDYFQS | area with substrate ENGYFQS | area with substrate ENMYFQS | area with substrate ENSYFQS | area with substrate ENCYFQS | area with substrate ENHYFQS | area with substrate ENKYFQS | area with substrate ENPYFQS | area with substrate ENQYFQS
G138W | 0.0618 | 0.0667 | 0.0589 | – | 0.0554 | 0.0848 | – | 0.0578 | – | –
G138F | 0.0663 | – | 0.0605 | – | – | – | – | 0.0673 | – | –
P134R | 0.0536 | 0.0548 | 0.0678 | 0.0556 | 0.0531 | – | 0.0633 | 0.0518 | 0.056 | 0.0589
C131K | 0.0687 | – | – | – | 0.0656 | – | – | 0.108 | 0.0527 | 0.0107
C131H | 0.0572 | 0.0587 | – | – | – | 0.0851 | – | – | – | –
C131W | 0.0704 | 0.0485 | – | 0.0993 | – | 0.0769 | – | 0.0677 | – | –
D149I | 0.058 | 0.0617 | – | – | 0.0737 | – | – | 0.0656 | 0.0578 | 0.0593
W141F | 0.0682 | 0.0668 | 0.0546 | – | – | – | 0.0668 | 0.0341 | 0.0467 | 0.0608
N116V | 0.0622 | – | – | – | 0.0533 | 0.0701 | 0.0691 | – | – | –
N116W | 0.0466 | 0.0696 | – | – | 0.0721 | – | 0.071 | 0.0509 | – | –
N116F | 0.0622 | – | 0.015 | – | 0.0571 | 0.0588 | – | 0.0592 | 0.0568 | 0.0754
D137Q | 0.0453 | – | 0.0444 | 0.0751 | 0.0963 | 0.075 | 0.0597 | – | 0.053 | 0.061
D137S | 0.0574 | – | – | – | – | – | – | – | – | –
Q118W | 0.0736 | 0.068 | 0.0713 | – | 0.0587 | 0.0527 | – | 0.0588 | – | –
T132N | 0.0675 | – | 0.0716 | 0.0515 | 0.0682 | – | – | – | – | 0.0605
T147V | 0.072 | 0.0651 | – | – | – | – | – | – | 0.0622 | –
T115R | 0.0683 | 0.0539 | 0.0642 | – | 0.0488 | – | 0.059 | – | 0.0666 | 0.0482
T115Q | 0.0621 | 0.0547 | 0.0576 | – | 0.0566 | 0.0595 | 0.0541 | 0.0588 | 0.0582 | 0.0735

Same assay, conditions: temperature: 34 °C; time window: 0-4 h after rhamnose induction

Variant | area with substrate ENRYFQS | area with substrate ENTYFQS | area with substrate ENVYFQS | area with substrate ENWYFQS | area with substrate ENYYFQS | area with substrate ENFYFQS | area with substrate ENIYFQS | area with substrate ENNYFQS | area with substrate ENEYFQS
T119A | 0.0629 | 0.0478 | 0.101 | 0.04 | 0.0503 | – | – | – | –
T119S | 0.0899 | – | – | – | – | 0.0587 | – | – | –
T119G | – | – | – | – | – | 0.0568 | – | – | –
T119Q | 0.054 | – | 0.0489 | – | – | – | – | – | –
T114N | – | 0.0618 | 0.0725 | 0.0535 | – | – | – | – | –
G153T | 0.0444 | – | 0.0405 | – | – | 0.0472 | – | – | –
G153C | – | 0.0556 | 0.0513 | – | – | – | 0.0354 | 0.0558 | –
G153F | 0.0632 | 0.0547 | 0.053 | 0.0222 | – | 0.0579 | 0.0433 | – | –
G153L | 0.0731 | 0.0514 | 0.0617 | – | 0.038 | – | 0.0375 | 0.0508 | 0.0536
T129D | 0.0439 | 0.0533 | – | – | – | – | – | – | 0.0561
T129K | – | 0.0539 | 0.064 | – | – | – | – | 0.0728 | 0.0582
S121F | 0.076 | – | 0.0873 | – | – | 0.066 | – | – | –
S124Y | 0.0947 | – | – | – | – | – | – | – | –
S124C | 0.0561 | – | 0.0677 | 0.0532 | – | 0.0651 | – | – | 0.0696
S124G | – | – | 0.0605 | 0.0393 | – | – | – | 0.0591 | –
V113W | 0.0344 | – | – | – | 0.045 | – | – | – | 0.0502
G138L | – | 0.0516 | 0.0651 | – | 0.0522 | – | 0.0857 | – | –
G138M | – | – | – | – | – | – | – | 0.0608 | 0.0709

Variant | area with substrate ENRYFQS | area with substrate ENTYFQS | area with substrate ENVYFQS | area with substrate ENWYFQS | area with substrate ENYYFQS | area with substrate ENFYFQS | area with substrate ENIYFQS | area with substrate ENNYFQS | area with substrate ENEYFQS
G138W | – | 0.0641 | – | – | 0.0606 | 0.0537 | 0.077 | – | –
G138F | – | 0.0224 | 0.0661 | – | – | 0.0351 | – | – | –
P134R | – | – | 0.0645 | – | – | 0.0752 | – | 0.0659 | 0.0529
C131K | 0.0421 | 0.0534 | – | – | – | – | – | 0.0606 | –
C131W | – | 0.0629 | – | – | – | – | – | – | –
D149I | – | – | 0.0584 | 0.0457 | – | – | 0.072 | 0.0693 | 0.0601
W141F | 0.0296 | – | – | 0.0697 | 0.055 | – | – | 0.0333 | 0.0639
N116V | 0.0702 | 0.0622 | – | – | – | 0.0545 | 0.0975 | 0.0618 | 0.0544
N116W | – | 0.0786 | – | – | – | – | – | 0.0582 | –
N116F | – | – | 0.046 | – | – | – | – | 0.0675 | –
D137Q | – | – | 0.0978 | – | 0.0658 | – | – | – | 0.0529
D137S | – | – | – | – | – | – | – | – | 0.07
Q118W | 0.027 | 0.0586 | 0.0661 | 0.0162 | – | 0.0587 | – | – | 0.0473
T132N | – | 0.0786 | 0.0405 | – | 0.0561 | 0.0758 | 0.0648 | 0.0587 | 0.0637
T147V | 0.0653 | 0.0618 | – | – | – | 0.0471 | 0.0925 | – | –
T115R | – | – | 0.083 | – | – | – | – | – | 0.0546
T115Q | 0.0279 | 0.0635 | 0.0837 | 0.0486 | – | 0.0592 | – | – | 0.0482
